This is one part of the list. At the low end of the ranking the order means little. The protein was read in a cell extract, so binding may be indirect.

This experiment concerns the target T1, HNF4alpha8 (COS-7 nuclear extract) (UniProt P41235-5).
T1 sequence: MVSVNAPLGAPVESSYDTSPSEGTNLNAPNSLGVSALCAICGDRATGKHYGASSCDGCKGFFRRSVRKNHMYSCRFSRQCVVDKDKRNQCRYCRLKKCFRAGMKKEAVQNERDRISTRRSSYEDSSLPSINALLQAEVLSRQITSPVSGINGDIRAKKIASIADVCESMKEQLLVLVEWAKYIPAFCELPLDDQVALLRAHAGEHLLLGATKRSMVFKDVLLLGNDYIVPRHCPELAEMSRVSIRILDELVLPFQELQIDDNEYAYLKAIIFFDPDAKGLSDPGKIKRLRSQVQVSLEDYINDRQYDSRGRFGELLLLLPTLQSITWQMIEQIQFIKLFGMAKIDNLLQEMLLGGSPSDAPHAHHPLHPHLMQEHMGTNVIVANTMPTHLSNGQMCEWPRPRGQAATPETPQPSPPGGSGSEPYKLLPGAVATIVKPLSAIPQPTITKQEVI
In words: protein-binding microarray. The conditions noted are these: COS-7 nuclear extract on double-stranded Agilent 4x180k PBM; binding buffer, salt, pH and temperature not given; high values mean tight binding; double strand, one strand shown; sequences stand for … in …GCCTAGGGAGATTAGAGTATCGGTCGA
Regarding AGACAACATCGAAGACTTCATGATAACACT, the binding signal (log2 normalized intensity) was -1.33. Turning to GCACCAGCCCATTAATCAAGGCTGCCTGGC, the binding signal (log2 normalized intensity) is -1.35. Turning to CATGGCAGACAGCAGTCTGAGTAGGAAAGA, the binding signal (log2 normalized intensity) was -1.39. With TGTTCACAGTGACGTTCTGCCCCTTATCTT, the binding signal (log2 normalized intensity) was 3.68. With AGCAAGATGACTTTGGTCTAGACACAGACT the figure was -0.78. With CAAATTGCTGACTTTCTGTGTCTTGGCAGT, the binding signal (log2 normalized intensity) amounted to 1.24.

Regarding CACAGAGGACGTCAGGCAGAGAGGGACTCT, the binding signal (log2 normalized intensity) is -1.2. As for CAGGGTAATGAGTGCTATCCCTGGAGCCTT, the binding signal (log2 normalized intensity) is -1.27. For ACCCCCGCCCCCATTATCTCCTTAGGTACT, the binding signal (log2 normalized intensity) was 3.33. Turning to AGCTTGTCCAGAGTAGGCTTGCAAGACTGC, the binding signal (log2 normalized intensity) was -1.34.

Consider CGGGAGCATAGCAGCGAGGACAACCAGAGG, for which the binding signal (log2 normalized intensity) was -1.31. For the sequence ACCTTGTGCAGTATCCCAGGGACTTACTCA, the binding signal (log2 normalized intensity) is -0.976. With ACCCAGGGGACGGAAGTTGCAGTGAGCTAA the figure was -1.23; with AGAGGGTATACTATTTGCTAATGTCCTTTG, 2.47. With ATGCCTTTCATCTTTGAGAAAACTCCAAAG the figure was -0.84; with CCCAGCGGTTCCGGGCGGCAGCACAAGGCG, -1.19; with AGGGAGATGGATATATGTACAGCTGTGTAT, 1.21. With ATACTTTGACTGAGACTGCCTCAAACAGCT, the binding signal (log2 normalized intensity) was -1.31. With ACTATCATACACTATTTTCCTAAATATGTT the figure was 0.941; with TCCAAAAGGGCAGCAGTAACCCCCCAGGAG, 3.77. On to GCGGGCTGGGGGCTGGGCGCGGGATCCTCT, for which the binding signal (log2 normalized intensity) was -1.39.

For the sequence CCAGCCCAGGTGGCTGCATCCTTCTCCTCC, the binding signal (log2 normalized intensity) was -1.34. The result for GGTCAAAGAGCAATCATCAAGGTGGTTTCA reads 2.27. For TGATGAAGCCTATAGTGCTCCCTCCTGTGG, the binding signal (log2 normalized intensity) was -0.907. On to GCAGAGTGGAGGCCAGCGCCAGGCTGGGGG, for which the binding signal (log2 normalized intensity) was -1.35. For the sequence AGGTCAATGCCAGGACCCTGTGGGACTGGT, the binding signal (log2 normalized intensity) is -0.131. For the sequence ACTCAGTTATCAACCTTATCAGCAGGACAC, the binding signal (log2 normalized intensity) is -0.227. Take CCATTTCACCTTTGCCCTGTCAGTCTCTCA: the binding signal (log2 normalized intensity) came out at 4.54. GTCAAATCACTGAAGCGACCCCTCGAGGCA: the binding signal (log2 normalized intensity) turned out to be 1.82. On to AAAACAGGTGTTCTTTCCCTCCAGCCCACT, for which the binding signal (log2 normalized intensity) amounted to 1.1. Turning to TTCCTGAAGATCGCAGACTTTGGACTCTGC, the binding signal (log2 normalized intensity) worked out at 8.57. TGGACCATGAGAAACATCCACATGTGGGTC: the binding signal (log2 normalized intensity) was 0.883. For the sequence GTGTTTATCTTGTGGTTGGAATGTTTCTGG, the binding signal (log2 normalized intensity) is 2.14.

On to CTGATGAATAGAAAGAGGTCAATGTACTTA, for which the binding signal (log2 normalized intensity) was found to be 2.94. As to TTGAGAACCTCCCATCAGCTGGGCTTGTTC, the binding signal (log2 normalized intensity) is -0.188. For ACTTGGGGTTCTTGGATCCTCAGGGTTCAT, the binding signal (log2 normalized intensity) turned out to be 3.08. The result for CCTTTTATTCAGGAAGTCGCTTGCCAGTAT reads -0.624; that for TTTTTGACTTACCATTTGCTGATAAGTAGG, 0.315; that for CAGCCAGGGTCAGGAGAAGCAGAACAGGTA, -1.41.

As for CTGCTCATTTTTCCCCTGACAAGTATCTCG, the binding signal (log2 normalized intensity) was found to be 1.99. With CACAGCAAGTAAATTCCGGGGCTGGAATTT the figure was 1.42; with TGGGCTCGGCGCTCCGCTTACTCGGCCTGG, -1.25; with ACATTCCAGGGAACAAGGGGTGGATCTCTG, -1.34. As for TTGGGGGCCATGTCTCAGCCCAAGATCAAA, the binding signal (log2 normalized intensity) is -1.06.

Take TCCCAGGATGAGGCCGTTCTAGCCCTTTTT: the binding signal (log2 normalized intensity) is -0.0189. Consider CCAATTGACCCTATCCACATTCAGCCCACT, for which the binding signal (log2 normalized intensity) came to 1.07. The result for TCACAGGGAATTTCCAAAGAGCAGCTAGCT reads -1.28; that for CACACACACAGCTTGGAGCTCCTTGTGAGC, -1.35. Turning to GACCTTTGCCCTCTGGCCCTTAAAGGCTTT, the binding signal (log2 normalized intensity) is 7.8. CCTGGTGACCTTTGTTTGGTCAAATACCTA: the binding signal (log2 normalized intensity) was 3.66. GCACAAGAGGGTGGGAGTTCAGGGGGTTGG: the binding signal (log2 normalized intensity) is -1.09. With TCTCTGGCATGTATTTATCAACATTCTTTC the figure was 1.44.

Turning to GCAATCTAAGTCTGGCTCCTGAAACTAAAG, the binding signal (log2 normalized intensity) is -1.44. Consider GAGGAGAGGCAGTGGCCTGAGGCAGCCAGT, for which the binding signal (log2 normalized intensity) was -1.25.

Take AGAACTAAGCTGTTGCGTAAGGGTCTGACC: the binding signal (log2 normalized intensity) was found to be 1.56. For the sequence GATACACCCCTAATGAATGGCAAATTAAAC, the binding signal (log2 normalized intensity) was 0.477. TTTTCTTCCACCTCCCTCCATGCTGTAGAT: the binding signal (log2 normalized intensity) worked out at 2.34. With TGCTTGATAAGACTGACAACCGGCTCTTCC the figure was -1.39. As to AAGAGCAATCATCAAGGTGGTTTCACTTCA, the binding signal (log2 normalized intensity) is -0.868. Regarding CACCCTGTTGCACAAGCTGTGTGGCATGGT, the binding signal (log2 normalized intensity) came to 0.587. As for ATTCATGGACAGCCTTGCCACATGGTCACC, the binding signal (log2 normalized intensity) was -1.01. The result for CCTCTTCCCTCATATAATTTACATAACAGG reads 1.31. In the case of AGGACAAAAGTAAATATGGTTTACCATATT, the binding signal (log2 normalized intensity) is -1.16.

In the case of TGTTGAAAAGAGCATAAGGTTTCCATCAAG, the binding signal (log2 normalized intensity) is -1.31. TTCAGCAGCATCTAAACTCTACTCACTAGA: the binding signal (log2 normalized intensity) was -1.37. TTTGTAGGCAGCTAGGCAGGCTCAGAACTA: the binding signal (log2 normalized intensity) was -1.32.

Turning to CTTTGACCCTGCTGTAGTGTGTAAGTATGC, the binding signal (log2 normalized intensity) was determined as 1.95. TCCACCCTGAAAGAGAGGAGGCTGAAGACT: the binding signal (log2 normalized intensity) was -1.3. For the sequence AATGAGGTCAATAGTCCAGATACAGATGGC, the binding signal (log2 normalized intensity) is 3.88. The result for ATAGCTGCCTGTGTGTTCTGCTATTCATTA reads 0.562; that for CAGAGGAACAGAGGGGTCTGAGCACATCAC, -1.41.

Consider GGGGACGGAAGTTGCAGTGAGCTAAGATTG, for which the binding signal (log2 normalized intensity) was -1.2. Turning to CTTCATTGTGCACCCACTTGGATAATTTCT, the binding signal (log2 normalized intensity) came out at 0.583.
